In publication PMC6919601, “Identification of Plasmodium dipeptidyl aminopeptidase allosteric inhibitors by high throughput screening” (PLoS ONE, 2019):
About 230 (0.21%) of roughly 110,000 compounds showed an effect of 50% or more. The list shows a part of the results.

What follows are compounds tested against DPAP1 (Plasmodium falciparum, UniProt Q8IIJ9) (assay: primary screen, percent inhibition; read by cleavage of a fluorogenic dipeptide substrate; higher = more effect of the substance).
Design: species or system P. falciparum D10 trophozoite lysates; single well
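Further: 30 min substrate incubation versus DMSO and 10 µM JCP410 controls.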

Chain of DPAP1 (Q8IIJ9 whole entry, looked up): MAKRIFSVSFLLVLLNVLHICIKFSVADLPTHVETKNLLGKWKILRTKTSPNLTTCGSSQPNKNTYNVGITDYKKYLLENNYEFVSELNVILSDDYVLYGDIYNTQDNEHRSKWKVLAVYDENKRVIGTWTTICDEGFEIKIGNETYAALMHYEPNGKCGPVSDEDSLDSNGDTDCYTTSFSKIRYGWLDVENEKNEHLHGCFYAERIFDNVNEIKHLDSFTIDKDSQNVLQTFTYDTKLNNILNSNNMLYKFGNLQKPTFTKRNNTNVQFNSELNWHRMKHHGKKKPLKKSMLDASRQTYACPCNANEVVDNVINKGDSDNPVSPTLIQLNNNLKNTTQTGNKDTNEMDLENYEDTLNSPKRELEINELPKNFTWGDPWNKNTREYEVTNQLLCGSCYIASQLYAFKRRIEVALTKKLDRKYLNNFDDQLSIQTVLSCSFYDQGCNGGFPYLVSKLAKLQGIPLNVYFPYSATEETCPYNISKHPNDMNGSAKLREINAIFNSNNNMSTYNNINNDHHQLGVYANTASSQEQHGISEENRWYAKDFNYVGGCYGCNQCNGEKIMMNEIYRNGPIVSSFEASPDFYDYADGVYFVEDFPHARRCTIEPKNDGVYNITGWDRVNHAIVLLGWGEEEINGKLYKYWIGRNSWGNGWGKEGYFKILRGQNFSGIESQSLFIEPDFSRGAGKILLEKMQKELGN

Structure (SMILES) | % Inhibition @ 10 uM [%]
CC1CCCC(C)N1CCCNC(=O)CCn1c(=O)c2cccn2c2cccnc21 (stereo not drawn) | -1.57
Cc1ccc(NC(=O)/C=C/c2ccccc2Cl)cc1 | -3.94
CCn1cc(/C=C(\NC(=O)c2ccccc2F)C(=O)N2CCN(C)CC2)c2ccccc21 | -0.0235
CCN(CC)C(=O)CN(c1cc(C)ccc1OC)S(=O)(=O)c1ccc(C)cc1 | 0.324
CCC1(C)CC(=O)c2c(ccc3oc(C(=O)N4CCC5(CC4)OCCO5)c(C)c23)O1 (stereo not drawn) | -0.447
CCOC(=O)N1CCN(C2=NS(=O)(=O)C(c3ccc(C)cc3)=C2C)CC1 | 5.42
COc1ccc(C2NC(C(=O)O)Cc3c2[nH]c2ccccc32)c(OC)c1OC (stereo not drawn) | -1.8
CC1C=CCC2C(=O)N(c3cccc(Cl)c3)C(=O)C12 (stereo not drawn) | -3.01
O=C(O)c1ccc2c(c1)C(=O)N(c1ccncc1)C2=O | -1.77
O=C(NCCc1ccccc1)c1nnc(Cc2ccc(F)cc2Cl)o1 | 0.974
C=CCn1c(SCc2cc(C(C)=O)ccc2OC)nnc1-c1cc2ccccc2o1 | -2.91
COCC(=O)Nc1cc(Cl)ccc1C | 0.467
Cc1cc(=O)n2nc(N(C)CC(=O)NCCc3ccc(Cl)cc3)sc2n1 | 1.38
C=CCn1c(C)nc2c(cnn2-c2ccccc2)c1=O | -3.27
CN1CCN(CCC/N=c2\c([N+](=O)[O-])c(O)oc3ccccc23)CC1 | -8.15
CC1CCN(c2c(NCc3ccc(C(=O)N(C)C4CCCCC4)cc3)c(=O)c2=O)CC1 | -0.522
O=C1NC(=O)/C(=C\c2ccc(O)c(Br)c2)S1 | -0.357
CC1=C(C(=O)N2CCCC2)C2(CCN(Cc3ccccc3)CC2)OC1=O | -4.38
COc1ccc(S(=O)(=O)N(CC(=O)Nc2c(Cl)cccc2Cl)Cc2ccccc2)cc1 | -11.9
O=C(Nc1ccc(Cl)cc1Cl)c1ccc(Cl)cc1 | 2.94
Cc1ccc(NS(=O)(=O)c2ccc(-n3cccn3)cc2)nc1 | 1.27
COc1ccc(C=C2C(=O)OC3(CCCCC3)OC2=O)c(OC)c1OC | -5.14
COc1ccc(CNc2ccc(C)cc2Br)cc1OC | -5.98
CCSc1nnc(-c2ccccc2Cl)o1 | 1.83
CCOC(=O)c1sc2nc(C)cc(C)c2c1NC(=O)c1ccccc1OC | -0.403

Structure (SMILES) | % Inhibition @ 10 uM [%]
CCc1nnc2c3ccccc3nc(NCCc3ccccc3)n12 | 3.59
CC(=O)N1C(=O)C2(C(C#N)=C(N)Oc3[nH]nc(-c4cccs4)c32)c2ccccc21 (stereo not drawn) | 0.777
C#CCSc1nc2c(c(=O)n1-c1ccc(OC)cc1)C1(CCCCC1)Cc1ccccc1-2 | -3.77
Cc1ccc(CCNC(=O)CCCn2ccc3cc(S(=O)(=O)N4CCCC4)ccc32)cc1 | -7.94
COc1ccc(CN2CCN(S(=O)(=O)c3cccc4nsnc34)CC2)c(OC)c1OC | -5.03
O=C(CCCN1C(=O)c2cccc3cccc(c23)C1=O)N1CCN(c2ccccc2)CC1 | 8.06
COc1cccc(Nc2ncccc2[N+](=O)[O-])c1 | -0.0953
c1ccc(CN2CCN(C3CCCCC3)CC2)cc1 | -3.85
O=C1c2cccnc2C(=O)N1CCc1ccc(S(=O)(=O)NC2CCCCCCC2)cc1 | -0.231
COc1ccc(OC)c(/C=C2/Sc3ccccc3C2=O)c1 | 2.76
CC(C)C[C@H](NC(=O)OCCN1C(=O)c2ccccc2C1=O)C(=O)NCC#N | -3.04
Cc1ccc(CN2CCC(CNS(=O)(=O)c3ccc(-c4ccc(O)nn4)s3)CC2)cc1 | 9.54
CCCCN1C(=O)N(C)C2C1N(C)C(=O)N2CCCC (stereo not drawn) | 0.215
CCCN1Cc2cccc(C(=O)NC(C)c3ccc4c(c3)OCCO4)c2C1=O (stereo not drawn) | 1.23
CC1CCN(c2c(-c3ccccc3)c(=O)c2=O)CC1 | 5.13
COc1ccc(/C=C2\SC(=O)N(Cc3ccccc3)C2=O)cc1OC | -4.5
O=C1C(Cl)=C(NCC2CCCO2)C(=O)N1c1ccccc1 (stereo not drawn) | 1.03
N#Cc1c(N)n(-c2ccc(O)cc2)c2nc3ccccc3nc12 | -1.8
CCC(=O)Nc1ccc(S(=O)(=O)N2CCCC2)cc1 | -2.3
Cc1ccc(C(=O)NC2CCCCC2)cc1S(=O)(=O)N1CCCCC1 | 1.35
CN(C)c1oc(COc2ccccc2F)nc1C#N | 7.16
Cn1c(=O)c2nc(Cl)n(CC(=O)c3ccc(Cl)cc3)c2n(C)c1=O | -0.63
COc1ccccc1OCCn1c(C)nc2cc(C)c(C)cc21 | -8.57
Cc1ccccc1-c1nc2c(=O)n(C)c(=O)nc-2n(C)n1 | 8.19
O=C(Nc1cccc2cccnc12)c1ccc(Cl)cc1 | -1.43

Structure (SMILES) | % Inhibition @ 10 uM [%]
COCCNC(=O)C1CCCN(c2nnc(C)c3c(C)n(-c4ccc(Cl)cc4)nc23)C1 (stereo not drawn) | 0.186
Cc1nc(C)c(NC(=O)NC2CCCCC2)cc1NC(=O)NC1CCCCC1 | 4.18
COc1ccc(-n2c(=S)[nH]c3c(c2=O)C2(CCCCC2)Cc2ccccc2-3)cc1 | 3.42
CCOC(=O)C1/C(=N/O)C2CCN1CC2 (stereo not drawn) | -1.42
N#CC1=C(N)Oc2[nH]nc(-c3cccnc3)c2C1c1cc(F)ccc1F (stereo not drawn) | -4.61
CCC(C)N(CCCNC(=O)c1sc2nc3n(c(=O)c2c1C)CCCCC3)Cc1ccco1 (stereo not drawn) | -6.34
CCO/C(O)=C1/C(C)=Nc2nc3ccccc3n2C1c1cc(Br)ccc1OC (stereo not drawn) | 1.73
COc1ccc(/C=C2\N=C(c3ccc(Cl)c(Cl)c3)OC2=O)c(OC)c1 | -5.03
CC(=O)c1ccc(N2CCN(Cc3cc(Br)cs3)CC2)cc1 | 2.41
CC[C@H](NC(=O)[C@H](C[C@H](C)c1ccccc1)NC(=O)c1ccc(-c2ccccc2Cl)cc1)C(=O)c1nc2ccccc2o1 | -3.48
Cc1ccc(C(=O)Nc2ccccn2)cc1S(=O)(=O)N1CCOCC1 | 8.97
CC(C)C[C@H](NC(=O)c1cc(-c2ccc(Cl)cc2)n(-c2ccc(S(N)(=O)=O)cc2)n1)C(=O)NCC#N | 5.76
COc1ccc(C2C3=C(O)CC(C)(C)CC3=Nc3nc(-c4cccc(O)c4)nn32)cc1 (stereo not drawn) | 3.59
CCOc1ccc(-c2nc(C#N)c(NC3CC3)o2)cc1 | 0.315
O=C(CN(c1ccccc1)S(=O)(=O)c1ccccc1)N1CCC(Cc2ccccc2)CC1 | 3.81
O=C(CN1CCOCC1)N1CCN(c2ccc3ccccc3n2)CC1 | -1.22
Cc1ccc(-c2nc(C(=O)N3CCN(Cc4ccc5c(c4)OCO5)CC3)c3n2CCCCC3)cc1 | -1.69
O=C(CCN1C(=O)c2ccccc2Sc2ncccc21)NC1CCCc2ccccc21 (stereo not drawn) | 7.39
CCCn1c2ccccc2c2cnn(CC(=O)N3CCc4cc(OC)c(OC)cc4C3C)c(=O)c21 (stereo not drawn) | 7.4
CCOC(=O)C1=C(C)N=C2SCC(=O)N2C1c1ccc2c(c1)OCO2 (stereo not drawn) | 4.88
Cc1c(Cl)cccc1NC(=O)C(C)C | 2.13
COc1cccc(-c2[nH]nc3c2C(c2ccco2)N(C)C3=O)c1 (stereo not drawn) | 3.88
CCCCCNC(=O)CCNC(=O)c1cc(OC)c(OC)c(OC)c1 | 1.42
COc1ccc(OC)c(CN2CCN(Cc3ccccc3C)CC2)c1 | -7.9
CCCC(=O)n1nc(-c2ccco2)nc1NCc1ccc(OC)cc1 | -1.47

Structure (SMILES) | % Inhibition @ 10 uM [%]
CCCCSc1nnc2n(/N=C/c3ccc(Cl)cc3Cl)cnn12 | -3.48
CC(C)(C)OC(=O)N[C@@H](Cc1cccc([N+](=O)[O-])c1)C(=O)NCC#N | 3.19
C=C(C)Cn1c(SCC(N)=O)nc2sc3c(c2c1=O)CCC3 | 42.1
Cc1cc(Cl)ccc1NC(=O)CN1C(=O)c2cccc3cccc1c23 | -6.25
CN1CCN(C(=O)C(c2ccccc2)N2Cc3ccccc3C2=O)CC1 (stereo not drawn) | 5.71
CCOC(=O)c1cnn(CCOC(=O)c2ccc(C)cc2)c1NC(=O)c1ccc(C)cc1 | 0.44
Clc1ccc(OCCn2ccnc2)c(Cl)c1 | 1.57
C=CCOc1ccc(/C=c2\sc3nc(=O)c(Cc4ccccc4)nn3c2=O)cc1 | 0.487
N=C(NOC(=O)Cc1ccccc1)c1cccnc1 | -1.25
O=C(O)CC(NC(=O)c1cccs1)c1cccc(Cl)c1 (stereo not drawn) | 0.9
CC1=CC(=C2C(=O)c3ccccc3C2=O)C=C(C)N1CCOCCO | -1.64
O=C(NCCCCc1ccccc1)c1ccc(Br)o1 | -1.07
O=C(NC1CC1c1ccccc1)c1cccs1 (stereo not drawn) | -2.83
COc1ccccc1/C=C/CN(CCCN(C)C)CCCN(C)C | -4.14
CS(=O)(=O)N1CCC(C(=O)NCCN2CCN(Cc3ccccc3)CC2)CC1 | 0.387
Cc1nc2ncnn2c(C)c1CCC(=O)N1CCC2(CC1)OCCO2 | -2.25
CCCN1CCC(N(C)CC(=O)OCC)CC1 | -0.0953
COc1ccc(/C=C2\N=C(C3CCCCC3)OC2=O)c(OC)c1 | 0.605
FC(F)(F)c1cccc(-c2nnc3ccc4ccccc4n23)c1 | 5.2
CN1CCN(C(=O)c2cc(-c3ccccc3O)on2)CC1 | -7.15
Cc1nnc2c(NCCCN3CCOCC3)nc3ccccc3n12 | -0.495
COc1ccc(OC)c(NC(=O)C2CCC2)c1 | 0.324
CCC(=O)N1C(C(=O)NCc2ccc(CC)cc2)CSC12CCN(C)CC2 (stereo not drawn) | -0.486
CC(C)c1ccc(CNc2ncc(-c3ccc(F)cc3)n2C)cc1 | 0.627
